Experimental data as given in patent US20130123253A1, “MODULATORS OF CENTRAL NERVOUS SYSTEM NEUROTRANSMITTERS” (HUMAN BIOMOLECULAR RESEARCH INSTITUTE, priority 2004, published 2013).
Like-named read-outs stand apart in the source and are kept apart here.

Legend:
[1] = biological target: human dopamine transporter (hDAT) (Homo sapiens, UniProt Q01959); test: Inhibition of [125I]RTI-55 binding in HEK-hDAT cell membranes; design: expressed in transfected cells
[2] = biological target: human norepinephrine transporter (hNET) (Homo sapiens, UniProt P23975); test: Inhibition of radioligand binding in HEK-hNET cell membranes; design: expressed in transfected cells
Sequence of UniProt P23975 (P23975 whole entry): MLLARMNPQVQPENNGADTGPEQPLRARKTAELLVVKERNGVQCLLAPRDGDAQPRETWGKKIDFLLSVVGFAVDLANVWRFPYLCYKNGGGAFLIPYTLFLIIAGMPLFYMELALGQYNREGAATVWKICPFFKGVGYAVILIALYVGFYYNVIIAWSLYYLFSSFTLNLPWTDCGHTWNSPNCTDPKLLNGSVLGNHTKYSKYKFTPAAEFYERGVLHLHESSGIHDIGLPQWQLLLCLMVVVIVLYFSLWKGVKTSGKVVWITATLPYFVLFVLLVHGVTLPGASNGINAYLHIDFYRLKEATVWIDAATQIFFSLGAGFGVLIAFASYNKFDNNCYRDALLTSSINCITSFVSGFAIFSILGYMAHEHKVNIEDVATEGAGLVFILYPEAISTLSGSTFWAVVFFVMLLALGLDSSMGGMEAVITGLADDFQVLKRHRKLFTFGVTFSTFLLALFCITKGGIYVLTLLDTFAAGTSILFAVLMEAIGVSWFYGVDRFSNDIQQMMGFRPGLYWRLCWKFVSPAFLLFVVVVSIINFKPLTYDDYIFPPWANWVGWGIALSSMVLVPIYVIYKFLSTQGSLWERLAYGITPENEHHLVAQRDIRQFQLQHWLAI

[3] = Table 1, read-out: Binding (Ki, nM) hDAT
[4] = Table 1, read-out: Binding (Ki, nM) hNET
[5] = read-out: Binding (Ki, nM) hDAT
[6] = Table 2, read-out: Binding (ki, nM) hDAT
[7] = Table 2, read-out: Binding (ki, nM) hNET

Sequence of UniProt Q01959 (Q01959 whole entry): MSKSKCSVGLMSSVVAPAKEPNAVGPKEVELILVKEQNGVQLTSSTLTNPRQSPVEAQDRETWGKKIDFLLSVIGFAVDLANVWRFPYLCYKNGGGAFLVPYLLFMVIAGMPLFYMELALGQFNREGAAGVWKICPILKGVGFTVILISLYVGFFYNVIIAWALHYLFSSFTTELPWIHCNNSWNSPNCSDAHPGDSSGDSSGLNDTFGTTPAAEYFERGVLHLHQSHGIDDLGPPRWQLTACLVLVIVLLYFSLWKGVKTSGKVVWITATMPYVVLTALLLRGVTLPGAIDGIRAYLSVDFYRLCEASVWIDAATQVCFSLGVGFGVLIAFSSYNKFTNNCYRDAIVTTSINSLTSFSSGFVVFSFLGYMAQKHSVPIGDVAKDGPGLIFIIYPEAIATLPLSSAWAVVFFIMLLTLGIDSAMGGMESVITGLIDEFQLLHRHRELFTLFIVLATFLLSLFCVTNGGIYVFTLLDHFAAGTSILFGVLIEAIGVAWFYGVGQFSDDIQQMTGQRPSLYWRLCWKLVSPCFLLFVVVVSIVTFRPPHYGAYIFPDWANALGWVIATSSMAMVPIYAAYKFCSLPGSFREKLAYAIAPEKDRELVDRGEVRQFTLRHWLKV

SMILES | Ki [1, 3] [nM] | Ki [2, 4] [nM] | other results
COc1ccc(F)cc1[C@@H]1CC[C@H](CCNCCc2ccccc2)O1 (relative stereo) [Cis-2-Phenethyl-aminoethyl)-5-(2′-methoxy-5′-fluorophenyl) tetrahydrofuran] | 3140 | 363 | 
COc1ccc(F)cc1C[C@@H]1CC[C@H](CN)O1 (relative stereo) [cis-2-(aminomethyl)-5-(5′-fluoro-2′-methoxybenzyl) tetrahydrofuran] |  |  | Ki [1, 5]: 97200 nM
NC[C@@H]1CC[C@@H](c2ccccn2)O1 (relative stereo) [trans-2-(aminomethyl)-5-(2′-pyridyl) tetrahydrofuran.] | 484000 | 93400 | 
NC[C@@H]1CC[C@@H](c2cnc3ccccc3c2)O1 (relative stereo) [trans-2-(aminomethyl)-5-(3′-quinoline) tetrahydrofuran] | 62200 | 19900 | 
COc1ccc(F)cc1C[C@H]1CC[C@H](CN)O1 (stereo in doubt) [Compound 18e, Trans-2-aminomethyl-5-(2′-methoxy-5′-fluorophenylmethyl)tetrahydrofuran] |  |  | Ki ([1]; Binding (Ki, nM) hDAT): 27200 nM
COc1ccc(F)cc1CCC[C@H]1CC[C@H](CN)O1 (stereo in doubt) [Compound 18m, Trans-2-aminomethyl-5-((2″-methoxy-5″-fluorophenyl)-3′-propyl)tetrahydrofuran] |  |  | Ki ([1]; Binding (Ki, nM) hDAT): 7330 nM
COc1ccc(F)cc1C[C@@H]1CC[C@@H](CN)O1 (stereo in doubt) [trans-2-(aminomethyl)-5-(5′-fluoro-2′-methoxybenzyl) tetrahydrofuran] |  |  | Ki ([1]; Binding (Ki, nM) hDAT): 27200 nM
COc1ccc(F)cc1CCC[C@@H]1CC[C@@H](CN)O1 (stereo in doubt) [trans-2-amino-methyl-5-((2″-methoxy-5″- fluorophenyl)-3′-propyl)tetra-hydrofuran] | 7330 |  | 
NCC1CCC(c2cnc3ccccc3c2)O1 (stereo not drawn) [2-(amino-methyl)-5-(3′-quinoline) tetrahydrofuran] | 63700 | 22700 | 
NCC1CCC(CCc2ccc(F)cc2)O1 (stereo not drawn) [2-(amino-methyl)-5-(4′-fluorophenethyl) tetrahydrofuran] | > 10000 | > 10000 | 
NCCC1CCC(c2ccco2)O1 (stereo not drawn) [2-(aminoethyl)-5-(2′-furyl)tetra-hydrofuran] | 89400 |  | Ki ([2]; Binding (Ki, nM) hNET): 50600 nM
Cc1ccc(CCC2CCC(CCN)O2)cc1F (stereo not drawn) [2-(aminoethyl)-5-(3′-fluoro-4′-methylphenethyl) tetrahydrafuran] | 8840 | 5630 | 
NCCC1CCC(c2ccc(Br)cc2)O1 (stereo not drawn) [2-(aminoethyl)-5-(4′-bromophenyl) tetrahydrofuran] | > 10000 | > 10000 | 
NCCC1CCC(c2ccc(F)cc2)O1 (stereo not drawn) [2-(aminoethyl)-5-(4′-fluorophenyl) tetrahydrofuran] | > 10000 | > 10000 | 
NCCC1CCC(CCc2ccncc2)O1 (stereo not drawn) [2-(aminoethyl)-5-(4′-pyridylethyl) tetrahydrofuran,] | 55200 | 13300 | 
CC(C)(C)c1ccc(C2CCC(CCN)O2)cc1 (stereo not drawn) [2-(aminoethyl)-5-(4′-t-butylphenyl) tetrahydrofuran] | > 10000 | > 10000 | 
NCCC1CCC(C2CCCCC2)O1 (stereo not drawn) [2-(aminoethyl)-5-cyclohexyl tetrahydrofuran,] | > 10000 | > 10000 | 
NCCC1CCC(c2ccccc2)O1 (stereo not drawn) [2-(aminoethyl)-5-phenyltetrahydro-furan] |  | > 10000 | 

SMILES | Ki [1, 3] [nM] | Ki [2, 4] [nM] | other results
NCC1CCC(CCc2cc(C(F)(F)F)ccc2Cl)O1 (stereo not drawn) [2-(aminomethyl)-5-(2′-chloro-5′-trifluoromethyl) phenethyl)tetra-hydrouran] | > 10000 | 9460 | 
COc1ccc2ccccc2c1CCC1CCC(CN)O1 (stereo not drawn) [2-(aminomethyl)-5-(2′-methoxy-1′-napheyhyl) tetrahydrofuran] | > 10000 | > 10000 | 
COc1ccc(CCC2CCC(CN)O2)cc1OC (stereo not drawn) [2-(aminomethyl)-5-(3′,4′di-methoxy-phenethyl) tetrahydrofuran] | 7920 | 8640 | 
NCC1CCC(CCc2ccncc2)O1 (stereo not drawn) [2-(aminomethyl)-5-(4′-pyridylethyl) tetrahydrofuran] | 146000 | 57400 | 
COc1ccc(F)cc1C1CCC(CN)O1 (stereo not drawn) [2-(aminomethyl)- 5-(2′-methoxy-5′- fluorophenyl) tetrahydrof] [2-(aminomethyl)-5-(2′-methoxy-5′-fluorophenyl) tetrahydrofuran] |  |  | Ki [1, 5]: 42800 nM
COc1ccc(F)cc1CCCC1CCC(CCN)O1 (stereo not drawn) [2-aminoethyl-5- ((2″-methoxy-5″- fluorophenyl)-3′- propyl)te] [2-aminoethyl-5-((2″-methoxy-5″- fluorophenyl)-3′-propyl)tetra-hydrofuran] |  |  | Ki [1, 5]: 7310 nM
COc1ccc(F)cc1C1CC[C@@H](CCNCCc2ccccc2)O1 (stereo partly drawn) [Cis-2-(Phenethyl-aminoethyl)-5-(2′-methoxy-5′-fluorophenyl) tetrohydrofuran] | 3350 | 589 | 
COc1ccc(F)cc1C1CCC(CN)O1 (stereo not drawn) [Compound 18b, 2-Aminomethyl-5-(2′-methoxy-5′-fluorophenyl)tetrahydrofuran] |  |  | Ki [1, 5]: 42800 nM
COc1ccc(F)cc1C[C@H]1CC[C@H](CCNCC[C@@H]2CC[C@@H](Cc3cc(F)ccc3OC)O2)O1 [N,N-Bis (trans-5′-(2″- methoxy-5″-fluoro-benzyl-2′-tetrahydro-furyl)-2-ethyl)amine] |  |  | Ki [1, 6]: 2390 nM; Ki [2, 7]: 727 nM
Oc1ccc(CCC2CCC(CCNCCC3CCC(CCc4ccc(O)cc4)O3)O2)cc1 (stereo not drawn) [N,N-bis (5′-(p-hydroxy-phenethyl)-2′-tetra-hydrofuryl-ethyl) amine] |  |  | Ki [1, 6]: 36 nM; Ki [2, 7]: 92 nM
CC(C)(C)c1ccc(C2CCC(CCNCCC3CCC(c4ccc(C(C)(C)C)cc4)O3)O2)cc1 (stereo not drawn) [N,N-bis (5′-(p-t-butyl-phenyl)-2′-tetra-hydro-furyl-ethyl) amine] |  |  | Ki [1, 6]: 8890 nM; Ki [2, 7]: > 10000 nM
C1CCC(C2CCC(CCNCCC3CCC(C4CCCCC4)O3)O2)CC1 (stereo not drawn) [N,N-bis (5′-cyclo-hexyl-2′-tetra-hydro-furyl-ethyl) amine] |  |  | Ki [1, 6]: 5960 nM; Ki [2, 7]: 8430 nM
COc1ccc2ccccc2c1CCC1CCC(CCNCCC2CCC(CCc3c(OC)ccc4ccccc34)O2)O1 (stereo not drawn) [N,N-bis(5′-(2″- methoxy-1″-naphth-ethyl)-2′-tetra-hydrofuryl-ethyl) amine] |  |  | Ki [1, 6]: 5510 nM; Ki [2, 7]: > 10000 nM
c1cc(CCC2CCC(CCNCCC3CCC(CCc4ccncc4)O3)O2)ccn1 (stereo not drawn) [N,N-bis(5′-(4″- pyridyl-ethyl)-2′-tetrahydro-furyl-ethyl) amine] |  |  | Ki [1, 6]: 9330 nM; Ki [2, 7]: 1620 nM
COc1ccc(CCC2CCC(CCNCCC3CCC(CCc4ccc(OC)c5ccccc45)O3)O2)c2ccccc12 (stereo not drawn) [N,N-bis(5′-(4″-meth-oxy-1″-naphth-ethyl)-2′-tetrahydro-furyl-ethyl) amine] |  |  | Ki [1, 6]: 5670 nM; Ki [2, 7]: > 10000 nM
COc1ccc(F)cc1CCC1CCC(CCNCCC2CCC(CCc3cc(F)ccc3OC)O2)O1 (stereo not drawn) [N,N-bis(5′-(5″-fluoro-2″- methoxy-phenethyl)-2′-tetrahydrofurylethyl) Amine] |  |  | Ki [1, 6]: 236 nM; Ki [2, 7]: 507 nM
Cc1ccc(CCC2CCC(CCNCCC3CCC(CCc4ccc(C)c(F)c4)O3)O2)cc1F (stereo not drawn) [N,N-bis(5′-(m-fluoro-p-methyl-phenethyl)-2′-tetrahydro-furylethyl) amine] |  |  | Ki [1, 6]: 474 nM; Ki [2, 7]: 4100 nM
Brc1ccc(C2CCC(CCNCCC3CCC(c4ccc(Br)cc4)O3)O2)cc1 (stereo not drawn) [N,N-bis(5′-(p-bromo-phenyl)-2′-tetra-hydrofuryl-ethyl) Amine] |  |  | Ki [1, 6]: 443 nM; Ki [2, 7]: 2690 nM
